The results in this text go back to the supplement of paper PMC4604168 (melanoma cell lines).

Some of the results follow. Most values come without repeats; read them as rough.
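Further: cells treated in 1,536-well plates, then fixed and DAPI-stained, with nuclei counted from automated high-throughput microscope images.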

In this assay the test system is SkMel2. Description: cell count relative to DMSO control; melanoma cells; higher = more viable cells. To be noted: library dose: standard library concentration; 72 h.
`Cn1cnc2c(F)c(Nc3ccc(Br)cc3Cl)c(C(=O)NOCCO)cc21` [selumetinib] + O=C(CCCCCCC(=O)Nc1ccccc1)NO [vorinostat] (first compound 0.075 µM, partner dose 0.4 µM) came in with a cell count of 23.2%.
Under `Cn1cnc2c(F)c(Nc3ccc(Br)cc3Cl)c(C(=O)NOCCO)cc21` [selumetinib] + CC(C)(C)c1cnc(CSc2cnc(NC(=O)C3CCNCC3)s2)o1 [SNS-032] (first compound 0.075 µM, partner dose 0.05 µM) stands 31%.
Under `COc1cc([C@@H]2c3cc4c(cc3[C@@H](O[C@@H]3O[C@@H]5CO[C@@H](C)O[C@H]5[C@H](O)[C@H]3O)[C@H]3COC(=O)[C@H]23)OCO4)cc(OC)c1O` [etoposide] + Cc1ccc(NC(=O)c2cccc(N(C)C)c2)cc1NC(=O)c1ccc(O)cc1 [ZM336372] (first compound 0.1 µM, partner dose 10 µM) stands 72.5%; under `Cn1cnc2c(F)c(Nc3ccc(Br)cc3Cl)c(C(=O)NOCCO)cc21` [selumetinib] + COc1cc2c(Oc3ccc4[nH]c(C)cc4c3F)ncnc2cc1OCCCN1CCCC1 [cediranib] (first compound 0.075 µM, partner dose 2 µM), 56.1%; under `COc1cc([C@@H]2c3cc4c(cc3[C@@H](O[C@@H]3O[C@@H]5CO[C@@H](C)O[C@H]5[C@H](O)[C@H]3O)[C@H]3COC(=O)[C@H]23)OCO4)cc(OC)c1O` [etoposide] + CN(C)S(=O)(=O)c1ccc2c(c1)/C(=C/c1cc3c([nH]1)CCCC3)C(=O)N2 [SU6656] (first compound 0.1 µM, partner dose 2 µM), 67.1%.
The value for `COc1cc([C@@H]2c3cc4c(cc3[C@@H](O[C@@H]3O[C@@H]5CO[C@@H](C)O[C@H]5[C@H](O)[C@H]3O)[C@H]3COC(=O)[C@H]23)OCO4)cc(OC)c1O` [etoposide] + CCCS(=O)(=O)Nc1ccc(F)c(C(=O)c2c[nH]c3ncc(Cl)cc23)c1F [PLX4720] (first compound 0.1 µM, partner dose 0.4 µM) was 77.2%.
Take `Cn1cnc2c(F)c(Nc3ccc(Br)cc3Cl)c(C(=O)NOCCO)cc21` [selumetinib] + CN(NC(=O)CC(=O)NN(C)C(=S)c1ccccc1)C(=S)c1ccccc1 [STA4783] (first compound 0.075 µM, partner dose 0.03 µM): the cell count worked out at 27%.
Under `CCN(CC)CCNC(=O)c1c(C)[nH]c(/C=C2\C(=O)Nc3ccc(F)cc32)c1C` [sunitinib] + O=C(CCCCCCC(=O)Nc1ccccc1)NO [vorinostat] (first compound 2 µM, partner dose 0.4 µM) stands 56.4%.
The value for `COc1cc([C@@H]2c3cc4c(cc3[C@@H](O[C@@H]3O[C@@H]5CO[C@@H](C)O[C@H]5[C@H](O)[C@H]3O)[C@H]3COC(=O)[C@H]23)OCO4)cc(OC)c1O` [etoposide] + C[C@@H]1CCN(C(=O)CC#N)C[C@@H]1N(C)c1ncnc2[nH]ccc12 [CP690550] (first compound 0.1 µM, partner dose 5 µM) was 70.5%; that for `CCN(CC)CCNC(=O)c1c(C)[nH]c(/C=C2\C(=O)Nc3ccc(F)cc32)c1C` [sunitinib] + COc1cc(Nc2ncc(F)c(Nc3ccc4c(n3)NC(=O)C(C)(C)O4)n2)cc(OC)c1OC [Tamatinib] (first compound 2 µM, partner dose 2 µM) was 72.3%; that for `COc1cc([C@@H]2c3cc4c(cc3[C@@H](O[C@@H]3O[C@@H]5CO[C@@H](C)O[C@H]5[C@H](O)[C@H]3O)[C@H]3COC(=O)[C@H]23)OCO4)cc(OC)c1O` [etoposide] + OCCn1cc(-c2cnc3nnn(Cc4ccc5ncccc5c4)c3n2)cn1 [PF04217903] (first compound 0.1 µM, partner dose 5 µM) was 74.6%.
The value for `C[C@]1(O)C[C@@H](c2nc(-c3ccc4ccc(-c5ccccc5)nc4c3)c3c(N)nccn32)C1` + CN(C)S(=O)(=O)c1ccc2c(c1)/C(=C/c1cc3c([nH]1)CCCC3)C(=O)N2 [SU6656] (first compound 2 µM, partner dose 2 µM) was 70%.
`C[C@]1(O)C[C@@H](c2nc(-c3ccc4ccc(-c5ccccc5)nc4c3)c3c(N)nccn32)C1` + COc1cc2c(Oc3ccc4[nH]c(C)cc4c3F)ncnc2cc1OCCCN1CCCC1 [cediranib] (first compound 2 µM, partner dose 2 µM) came in with a cell count of 71.7%.
`CCN(CC)CCNC(=O)c1c(C)[nH]c(/C=C2\C(=O)Nc3ccc(F)cc32)c1C` [sunitinib] + CO[C@@H]1[C@H](N(C)C(=O)c2ccccc2)C[C@H]2O[C@]1(C)n1c3ccccc3c3c4c(c5c6ccccc6n2c5c31)C(=O)NC4 [Midostaurin] (first compound 2 µM, partner dose 0.4 µM): the cell count was determined as 70.6%.
Under `COc1cc([C@@H]2c3cc4c(cc3[C@@H](O[C@@H]3O[C@@H]5CO[C@@H](C)O[C@H]5[C@H](O)[C@H]3O)[C@H]3COC(=O)[C@H]23)OCO4)cc(OC)c1O` [etoposide] + CC(C)(C)c1cnc(CSc2cnc(NC(=O)C3CCNCC3)s2)o1 [SNS-032] (first compound 0.1 µM, partner dose 0.05 µM) stands 45.7%; under `C[C@]1(O)C[C@@H](c2nc(-c3ccc4ccc(-c5ccccc5)nc4c3)c3c(N)nccn32)C1` + C=CCn1c(=O)c2cnc(Nc3ccc(N4CCN(C)CC4)cc3)nc2n1-c1cccc(C(C)(C)O)n1 [MK1775] (first compound 2 µM, partner dose 0.1 µM), 56.4%; under `COc1cc([C@@H]2c3cc4c(cc3[C@@H](O[C@@H]3O[C@@H]5CO[C@@H](C)O[C@H]5[C@H](O)[C@H]3O)[C@H]3COC(=O)[C@H]23)OCO4)cc(OC)c1O` [etoposide] + O=C(CCCCCCC(=O)Nc1ccccc1)NO [vorinostat] (first compound 0.1 µM, partner dose 0.4 µM), 53.3%.
The value for `COc1cc([C@@H]2c3cc4c(cc3[C@@H](O[C@@H]3O[C@@H]5CO[C@@H](C)O[C@H]5[C@H](O)[C@H]3O)[C@H]3COC(=O)[C@H]23)OCO4)cc(OC)c1O` [etoposide] + O=C(O)c1ccc(-c2c[nH]c3ncc(-c4ccccc4)cc23)cc1C1CCCC1 [GSK650394] (first compound 0.1 µM, partner dose 0.8 µM) was 63.1%.
`Cn1cnc2c(F)c(Nc3ccc(Br)cc3Cl)c(C(=O)NOCCO)cc21` [selumetinib] + Cc1ccc(NC(=O)c2cccc(N(C)C)c2)cc1NC(=O)c1ccc(O)cc1 [ZM336372] (first compound 0.075 µM, partner dose 10 µM): the cell count came to 21.8%.
The value for `C[C@]1(O)C[C@@H](c2nc(-c3ccc4ccc(-c5ccccc5)nc4c3)c3c(N)nccn32)C1` + OCCn1cc(-c2cnc3nnn(Cc4ccc5ncccc5c4)c3n2)cn1 [PF04217903] (first compound 2 µM, partner dose 5 µM) was 65.8%; that for `CCN(CC)CCNC(=O)c1c(C)[nH]c(/C=C2\C(=O)Nc3ccc(F)cc32)c1C` [sunitinib] + CN(C)S(=O)(=O)c1ccc2c(c1)/C(=C/c1cc3c([nH]1)CCCC3)C(=O)N2 [SU6656] (first compound 2 µM, partner dose 2 µM) was 60.9%; that for `CCN(CC)CCNC(=O)c1c(C)[nH]c(/C=C2\C(=O)Nc3ccc(F)cc32)c1C` [sunitinib] + CC(C)(C)c1cnc(CSc2cnc(NC(=O)C3CCNCC3)s2)o1 [SNS-032] (first compound 2 µM, partner dose 0.05 µM) was 24.5%.
Turning to `Cn1cnc2c(F)c(Nc3ccc(Br)cc3Cl)c(C(=O)NOCCO)cc21` [selumetinib] + O=C(Nc1cccc(Cl)c1)Nc1ncc(CCNc2ncnc3ccsc23)s1 [SNS314] (first compound 0.075 µM, partner dose 0.004 µM), the cell count worked out at 53.2%.
Under `COc1cc([C@@H]2c3cc4c(cc3[C@@H](O[C@@H]3O[C@@H]5CO[C@@H](C)O[C@H]5[C@H](O)[C@H]3O)[C@H]3COC(=O)[C@H]23)OCO4)cc(OC)c1O` [etoposide] + CC1(C)NC(=O)N(c2ccc([N+](=O)[O-])c(C(F)(F)F)c2)C1=O [nilutamide] (first compound 0.1 µM, partner dose 5 µM) stands 78.5%.
